The campaign covered roughly 310,000 compounds. About 2,200 (0.71%) showed an effect of 50% or more. The effect is printed as a negative number. Some of the results follow.
molecular target: human ether-à-go-go-related gene (hERG) potassium channel (human, UniProt Q12809); assay: primary screen, population patch clamp on CHO cells stably expressing hERG
Sequence (Q12809 whole entry, looked up): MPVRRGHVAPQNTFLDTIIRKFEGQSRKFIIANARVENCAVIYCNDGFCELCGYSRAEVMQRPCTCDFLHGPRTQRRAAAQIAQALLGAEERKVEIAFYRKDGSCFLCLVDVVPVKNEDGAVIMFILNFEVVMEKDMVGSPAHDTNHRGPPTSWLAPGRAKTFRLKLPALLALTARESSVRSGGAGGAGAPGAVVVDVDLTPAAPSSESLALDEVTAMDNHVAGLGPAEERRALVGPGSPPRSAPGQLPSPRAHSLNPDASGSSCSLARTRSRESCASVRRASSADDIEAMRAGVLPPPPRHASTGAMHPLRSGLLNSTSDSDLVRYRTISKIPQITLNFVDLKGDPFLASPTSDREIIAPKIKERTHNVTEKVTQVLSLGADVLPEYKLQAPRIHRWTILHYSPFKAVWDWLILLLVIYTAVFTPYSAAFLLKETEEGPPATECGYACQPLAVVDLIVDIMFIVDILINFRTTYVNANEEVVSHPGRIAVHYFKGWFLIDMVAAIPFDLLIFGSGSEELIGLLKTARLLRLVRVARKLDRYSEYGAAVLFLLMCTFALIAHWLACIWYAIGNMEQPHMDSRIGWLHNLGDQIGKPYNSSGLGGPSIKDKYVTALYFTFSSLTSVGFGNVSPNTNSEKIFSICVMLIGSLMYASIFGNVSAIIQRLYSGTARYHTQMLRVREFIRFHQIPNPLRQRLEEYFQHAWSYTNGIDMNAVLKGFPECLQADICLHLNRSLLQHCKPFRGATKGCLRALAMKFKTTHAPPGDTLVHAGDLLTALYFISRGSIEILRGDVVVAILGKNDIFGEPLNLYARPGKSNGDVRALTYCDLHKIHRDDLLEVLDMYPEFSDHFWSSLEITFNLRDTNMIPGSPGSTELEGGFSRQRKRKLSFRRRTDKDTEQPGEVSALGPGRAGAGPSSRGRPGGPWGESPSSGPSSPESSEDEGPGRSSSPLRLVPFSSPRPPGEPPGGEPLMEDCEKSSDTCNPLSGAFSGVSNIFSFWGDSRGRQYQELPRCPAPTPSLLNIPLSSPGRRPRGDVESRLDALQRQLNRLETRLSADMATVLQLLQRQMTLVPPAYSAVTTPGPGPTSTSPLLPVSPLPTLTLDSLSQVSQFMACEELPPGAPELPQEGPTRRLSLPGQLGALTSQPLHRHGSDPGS

| SMILES | hERG current change (%, negative = inhibition) at 1uM [%] |
| --- | --- |
| COc1ccccc1N1C(C)=CC(=C(C#N)c2nc3ccccc3s2)C=C1C | 7.61 |
| COc1ccc(N2C(=O)N[C@@H](Cc3ccccc3)C2=O)cc1OC | 16.7 |
| Cc1ccc(S(=O)(=O)N2CCN(C(=O)c3ccc(N4CCCCC4)c([N+](=O)[O-])c3)CC2)cc1 | 7.96 |
| COc1cc(C#N)ccc1OCC(=O)c1ccc2c(c1)OCCO2 | -20 |
| O=C(Nc1cccnc1)OC1CCCCC1 | 2.56 |
| N=c1c(S(=O)(=O)c2ccc(Cl)cc2)cc2c(=O)n3ccccc3nc2n1Cc1ccco1 | 14 |
| C/C(=N\NC(=O)c1ccc(O)cc1)c1cc2ccccc2o1 | -2.13 |
| COc1ccc(CNc2ncnc3ccccc23)cc1 | 14.8 |
| CCc1ccc(-c2cc(C(=O)N/N=C/c3c[nH]c4ccccc34)[nH]n2)cc1 | 0.163 |
| O=C(CSc1nnc2nnc3ccccc3n12)N1CCOCC1 | 14 |
| CCCc1cc(NC(=O)COC(=O)c2nccnc2N)n(-c2ccccc2)n1 | 0.993 |
| CCn1c2ccccc2c2cc(NC(=O)c3ccc([N+](=O)[O-])cc3)ccc21 | 3.1 |
| Cc1ccccc1OCCNC(=O)c1ccc2ccccc2n1 | -15.8 |
| Cc1cc(C)cc(NC(=O)CN2CCCN(S(=O)(=O)c3ccc(Br)s3)CC2)c1 | 9.64 |
| CCOc1cccc(CN2CCCC(C(=O)c3cccc(C(F)(F)F)c3)C2)c1O (stereo not shown) | -7.4 |
| CC(C)NC(=O)NC(=O)COC(=O)/C=C/c1ccc2c(c1)OCO2 | 11.8 |
| O=C(Cn1nc(-c2ccccc2)c2ccccc2c1=O)NCCN1CCOCC1 | 8.6 |
| Cc1ccc(Nc2nc(NCc3ccco3)c3ccccc3n2)cc1.Cl | 15 |
| Cc1ccc(C(=O)N2CCN(c3cccc(Cl)c3)CC2)cc1C | 3.72 |
| CC(NCCC1(C(C)C)CCOC(C)(C)C1)c1cccs1 (stereo not shown) | 12.2 |
| CCN(CC)c1ccc(/C=N/NC(=O)CC(C)C)cc1 | -0.348 |
| Nn1c(SCC(=O)NC2CCCCC2)nnc1-c1ccco1 | 11.1 |
| CC(C)C1(C(C)C)OC(=O)c2ccccc21 | -2.57 |
| c1ccc(Nc2ccc(Nc3ccccc3)cc2)cc1 | 15.5 |
| CC(=O)c1cccc(NC(=O)CN(c2ccccc2F)S(C)(=O)=O)c1 | 1.45 |

From paper PMC4336329 (PLoS ONE, 2015)
